About 5,700 (2.6%) of roughly 220,000 compounds were called active. The inconclusive results got no clear call from the source; some entries with a clear call stand among them for comparison. Calls come from the whole dose curve; as a rule, active = well fitted inhibition curve with a large enough effect; inconclusive = small, poorly fitted or top-dose-only effect; inactive = no such curve, though single readings can be large or run the other way. Where the call is inconclusive, the potency comes from a doubtful curve fit.
The compounds below were run against Lysine-specific demethylase 5B (Homo sapiens) (UniProt Q9UGL1) (assay: Primary screen for KDM5B Histone Demethylases FDH-coupled qHTS). Settings: FDH-coupled NADH fluorescence (FDH is formaldehyde dehydrogenase); series mostly up to 57.7 µM.
UniProt Q9UGL1, sequence (Q9UGL1 whole entry, looked up): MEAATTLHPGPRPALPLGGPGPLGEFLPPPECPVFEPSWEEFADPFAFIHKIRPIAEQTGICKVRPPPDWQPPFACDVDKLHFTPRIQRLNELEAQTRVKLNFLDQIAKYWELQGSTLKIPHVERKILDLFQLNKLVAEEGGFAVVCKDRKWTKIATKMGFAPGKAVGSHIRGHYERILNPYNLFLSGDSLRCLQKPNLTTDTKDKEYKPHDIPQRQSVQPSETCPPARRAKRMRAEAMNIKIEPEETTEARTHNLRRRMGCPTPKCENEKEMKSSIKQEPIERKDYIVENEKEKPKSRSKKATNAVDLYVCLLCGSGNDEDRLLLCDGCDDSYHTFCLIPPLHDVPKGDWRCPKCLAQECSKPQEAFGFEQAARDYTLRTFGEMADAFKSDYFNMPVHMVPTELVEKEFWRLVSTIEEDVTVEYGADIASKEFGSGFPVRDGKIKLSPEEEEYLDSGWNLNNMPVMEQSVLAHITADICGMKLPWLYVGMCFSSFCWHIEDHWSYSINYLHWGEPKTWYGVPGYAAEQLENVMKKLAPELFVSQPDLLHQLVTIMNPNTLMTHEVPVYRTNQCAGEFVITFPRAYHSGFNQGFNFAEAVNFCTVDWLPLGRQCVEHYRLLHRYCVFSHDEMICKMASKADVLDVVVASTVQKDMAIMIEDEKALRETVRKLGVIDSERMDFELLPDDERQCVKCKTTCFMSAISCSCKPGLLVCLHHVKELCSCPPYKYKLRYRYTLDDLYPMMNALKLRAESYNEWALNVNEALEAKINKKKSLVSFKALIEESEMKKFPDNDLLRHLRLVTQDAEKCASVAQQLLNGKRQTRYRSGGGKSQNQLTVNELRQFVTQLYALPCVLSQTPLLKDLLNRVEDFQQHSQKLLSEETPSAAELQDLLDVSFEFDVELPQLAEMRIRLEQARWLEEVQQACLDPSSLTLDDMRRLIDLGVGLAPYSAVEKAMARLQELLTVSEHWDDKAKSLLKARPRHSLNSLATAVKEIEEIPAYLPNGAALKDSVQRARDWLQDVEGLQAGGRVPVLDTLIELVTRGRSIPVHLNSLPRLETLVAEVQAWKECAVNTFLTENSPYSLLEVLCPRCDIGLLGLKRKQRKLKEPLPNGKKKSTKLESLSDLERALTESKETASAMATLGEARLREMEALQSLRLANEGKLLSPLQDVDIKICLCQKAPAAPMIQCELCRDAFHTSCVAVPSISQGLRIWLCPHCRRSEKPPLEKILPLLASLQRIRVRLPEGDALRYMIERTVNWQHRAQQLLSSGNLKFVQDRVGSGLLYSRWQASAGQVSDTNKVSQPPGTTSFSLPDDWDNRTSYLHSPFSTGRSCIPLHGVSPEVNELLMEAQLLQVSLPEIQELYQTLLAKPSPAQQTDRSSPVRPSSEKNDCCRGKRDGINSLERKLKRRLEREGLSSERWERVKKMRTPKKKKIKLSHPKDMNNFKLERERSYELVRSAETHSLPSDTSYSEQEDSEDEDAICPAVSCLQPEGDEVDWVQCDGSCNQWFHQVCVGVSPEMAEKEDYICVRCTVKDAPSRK
Outline: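 Compound dilutions met 200 nM (final) KDM5BΔAP for 10 min at room temperature before substrate addition. The substrate mix held 12.5 µM H3K4me3 with cofactors 25 µM α-ketoglutarate and 50 µM Fe²⁺. NADH signal gain over 30 min defined activity.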
For COc1cc(-c2nc3ccc(Cl)cn3c2Nc2ccc3c(c2)OCO3)cc(OC)c1O, the Potency was inconclusive: 20 µM [inhibitor, partial curve, poor fit].
For O=c1oc2c3c(ccc2c2ccccc12)OCN(Cc1cccc(Cl)c1)C3, the Potency was inconclusive: 22.4 µM [inhibitor, single point].
For O=C(Cc1c[nH]c2ccccc12)NC1CCCCCC1, the Potency was “inactive”.
CN(C)S(=O)(=O)c1ccc(NC(=O)CCc2ncc(-c3ccc(F)cc3F)o2)cc1 was tested, and the Potency was “inactive”.
For O=C(O)C1(c2ccc(Cl)cc2Cl)CCOCC1, the Potency was “inactive”.
In the case of Cc1ccccc1[S+](=O)([O-])N1CC2(CN(CCOc3ccccc3)C(=O)O2)C1, the Potency is reported as “inactive”.
c1ncc(-c2ccc(-c3noc([C@@H]4CCCN4Cc4ccc5c(c4)OCO5)n3)cn2)cn1 was tested, and the Potency was inconclusive: 56.2 µM [inhibitor, single point].
For CN(C)C(=O)C(Sc1nnc(-c2ccc(Cl)cc2)n1N)c1ccccc1 (stereo not drawn), the Potency was “inactive”.
With Cc1noc(C)c1S(=O)(=O)N1CCCN(S(=O)(=O)c2ccccc2)CCC(=O)NCC1 the Potency was inconclusive: 11.2 µM [inhibitor, partial curve, poor fit].
COc1ccc(C(C)NC(=O)C2CCN(C(=O)c3ncn4c3COC(c3ccccc3)C4)CC2)cc1 (stereo not drawn) was tested, and the Potency was “inactive”.
In the case of CCc1c(C)sc2c1CCN(Cc1ccc(F)cc1)C2c1ccccc1 (stereo not drawn), the Potency is reported as inconclusive: 22.4 µM [inhibitor, partial curve, poor fit].
Cc1ccc(CSc2cn(CC(=O)N3CCCCC3)c3ccccc23)cc1 was tested, and the Potency was inconclusive: 1.58 µM [inhibitor, partial curve, poor fit].
With O=C1Cc2c(-c3ccccc3)n[nH]c2CN1CCc1ccncc1 the Potency was “inactive”.
For O=C(NCc1ccc2c(c1)OCO2)c1cnc2c(c1)N([S+](=O)([O-])c1cccnc1)CCC2, the Potency was “inactive”.
With CCCCOc1ccc(C(=O)Nc2ccc3oc(=O)ccc3c2)cc1 the Potency was inconclusive: 22.4 µM [inhibitor, single point].
In the case of Cc1nc2cc(NC(=O)C3CC(=O)N(C4CCCC4)C3)ccc2o1 (stereo not drawn), the Potency is reported as “inactive”.
With CCOc1ccc(-c2cnc(NCc3ccc(OC)cc3OC)n2C)cc1 the Potency was inconclusive: 10 µM [inhibitor, partial curve, poor fit].
For COc1ccccc1NC(=O)c1cnc(Nc2ccc(C)c(Cl)c2)c2ccccc12, the Potency was “inactive”.
In the case of COc1ccc(S(=O)(=O)NC2CCc3n[nH]c(=O)n3CC2)cc1Cl (stereo not drawn), the Potency is reported as “inactive”.
With O=C(NCc1ccc(F)cc1)c1ccc(NC(=O)N2CC3CCCN3c3ccccc32)cc1 (stereo not drawn) the Potency was inconclusive: 17.8 µM [inhibitor, partial curve, poor fit].
For COc1ccc(NC(=O)c2cc3c(N4CCSCC4)nc(C)cn3n2)c(OC)c1, the Potency was inconclusive: 8.91 µM [inhibitor, partial curve, poor fit].
In the case of Cn1nc(C(=O)N2CCN(c3ccccc3F)CC2)c2c1-c1ccccc1SC2, the Potency is reported as inconclusive: 35.5 µM [inhibitor, single point].
In the case of CN(Cc1ccc(N2CCOCC2)cc1)C(=O)CCC[C@H]1NC[C@@H]2C[C@H]1CN(Cc1ccccc1)C2, the Potency is reported as inconclusive: 14.1 µM [inhibitor, partial curve, poor fit].
Cc1ccc(NC(=O)c2cccn2-c2nnc(N3CCCCC3)s2)cc1Cl was tested, and the Potency was inconclusive: 35.5 µM [inhibitor, partial curve, poor fit].
In the case of CCOc1ccc(C(=O)N2CCC3(CC2)N=C(c2ccc(Cl)cc2)NO3)cc1, the Potency is reported as active: 28.2 µM.
With CCc1cccc(C)c1NC(=O)CN1C=C(C(=O)OC)C(C)=NS1(=O)=O the Potency was “inactive”.
For Cc1cccc(N=Cc2ccccc2[N+](=O)[O-])c1, the Potency was inconclusive: 28.2 µM [inhibitor, partial curve, poor fit].
CCCCN(CC)CCCNC(=O)c1cc2c(-c3ccc(OC)c(OC)c3)nn(C)c2s1 was tested, and the Potency was inconclusive: 22.4 µM [inhibitor, single point].
For CN1CCN(c2ccc(-c3noc([C@@H]4CCCN4C4CCCCC4)n3)cn2)CC1, the Potency was inconclusive: 35.5 µM [inhibitor, single point].
CC(Cn1cccn1)Nc1ccc(-c2nc(-c3ccccc3F)no2)cn1 (stereo not drawn) was tested, and the Potency was active: 28.2 µM.
In the case of COc1cc(CN(C(=O)COc2ccc(C)c(C)c2)c2ccccn2)cc(OC)c1OC, the Potency is reported as inconclusive: 15.8 µM [inhibitor, partial curve, poor fit].
In the case of N#Cc1cccc(CN2CCCc3ccccc32)c1, the Potency is reported as inconclusive: 31.6 µM [inhibitor, partial curve, poor fit].
For O=C(c1n[nH]c2ccccc12)N1CCC(c2nc(CCOCC3CC3)no2)C1 (stereo not drawn), the Potency was “inactive”.
In the case of CCCN(CCC)CCNC(=O)c1cc2c(-c3ccccc3F)nn(C)c2s1, the Potency is reported as inconclusive: 28.2 µM [inhibitor, partial curve, poor fit].
With Cn1nc(C(=O)Nc2ccc(S(=O)(=O)NCc3ccco3)cc2)c2ccccc2c1=O the Potency was inconclusive: 39.8 µM [inhibitor, partial curve, poor fit].
In the case of CN(C)C[C@@H]1CN(c2ccncn2)C[C@H]1NC(=O)NC1CCCCC1, the Potency is reported as “inactive”.
With CC(C)N1CCC(N2C[C@@H](CO)[C@H](c3nc(C4CC4)no3)C2)CC1 the Potency was inconclusive: 22.4 µM [inhibitor, partial curve].
Fc1ccc(NC(=S)N/N=C/c2ccc(C(F)(F)F)cc2)c(F)c1 was tested, and the Potency was “inactive”.
CCC(C(=O)Nc1cccc(C#N)c1)n1c(=O)c(-c2ccccc2NC(C)=O)nc2ccccc21 (stereo not drawn) was tested, and the Potency was inconclusive: 1.41 µM [inhibitor, partial curve, poor fit].
NCC(=O)N1Cc2ccccc2CC2(CCCCN2CC2CCCC2)C1 (stereo not drawn) was tested, and the Potency was “inactive”.
For CC(C)(C)NC(=O)C1CCN(c2oc(-c3ccco3)nc2C#N)CC1, the Potency was inconclusive: 20 µM [inhibitor, partial curve, poor fit].
With CC(=O)Oc1ccc2c(-c3ccc(F)cc3)noc2c1 the Potency was inconclusive: 25.1 µM [inhibitor, partial curve, poor fit].
For COc1ccccc1-c1cc(C(=O)NCc2ccnc(N)c2)c2c(c1)ncn2C, the Potency was inconclusive: 35.5 µM [inhibitor, single point].
Note: nearly all actives have a fitted effect of over 70% in size.
Potency is the fitted concentration of half-maximal effect; tags give direction and shape of the fitted curve.
